# This is one part of the list. Many values rest on one well or one pass, so single values are uncertain.
# System: A375
# Assay: cell count relative to DMSO control; melanoma cells; higher = more viable cells
# Details: library dose: standard library concentration; 72 h
# 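Further: cells treated in 1,536-well plates, then fixed and DAPI-stained, with nuclei counted from automated high-throughput microscope images.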
row,Compound,cell count [%]
1,"O=C(Nc1cc(C(F)(F)F)cc(C(F)(F)F)c1)c1cc(Cl)ccc1O + C[As](C)SC[C@H](NC(=O)CC[C@H](N)C(=O)O)C(=O)NCC(=O)O [Darinaparsin] (first compound 0.08 µM, partner dose 2 µM)",77.5
2,"COc1cc([C@@H]2c3cc4c(cc3[C@@H](O[C@@H]3O[C@@H]5CO[C@@H](C)O[C@H]5[C@H](O)[C@H]3O)[C@H]3COC(=O)[C@H]23)OCO4)cc(OC)c1O [etoposide] + C[As](C)SC[C@H](NC(=O)CC[C@H](N)C(=O)O)C(=O)NCC(=O)O [Darinaparsin] (first compound 0.1 µM, partner dose 2 µM)",60
3,"C[C@@H](N)c1ccc(C(=O)Nc2ccnc3[nH]ccc23)cc1 + C[C@]12O[C@H](C[C@]1(O)CO)n1c3ccccc3c3c4c(c5c6ccccc6n2c5c31)CNC4=O [Lestaurtinib] (first compound 2 µM, partner dose 0.02 µM)",105
4,"Cc1cc(Nc2cc(N3CCN(C)CC3)nc(/C=C/c3ccccc3)n2)n[nH]1 + N.N.[Cl][Pt][Cl] [cisplatin] (first compound 0.2 µM, partner dose 8 µM)",110
5,"CC1(C)CCC(c2ccc(Cl)cc2)=C(CN2CCN(c3ccc(C(=O)NS(=O)(=O)c4ccc(N[C@H](CCN5CCOCC5)CSc5ccccc5)c(S(=O)(=O)C(F)(F)F)c4)cc3)CC2)C1 + C[C@]12O[C@H](C[C@]1(O)CO)n1c3ccccc3c3c4c(c5c6ccccc6n2c5c31)CNC4=O [Lestaurtinib] (first compound 2 µM, partner dose 0.02 µM)",56.8
6,"CCCCCCCCc1ccc(CCC(N)(CO)CO)cc1 [fingolimod] + N.N.[Cl][Pt][Cl] [cisplatin] (first compound 10 µM, partner dose 8 µM)",63.4
7,"Cn1c(=O)n(-c2ccc(C(C)(C)C#N)cc2)c2c3cc(-c4cnc5ccccc5c4)ccc3ncc21 + N.N.[Cl][Pt][Cl] [cisplatin] (first compound 0.02 µM, partner dose 8 µM)",73.5
8,"Cc1cn(-c2cc(NC(=O)c3ccc(C)c(Nc4nccc(-c5cccnc5)n4)c3)cc(C(F)(F)F)c2)cn1 [nilotinib] + N.N.[Cl][Pt][Cl] [cisplatin] (first compound 1 µM, partner dose 8 µM)",101
9,"Cc1cc(SCc2sc(-c3ccc(C(F)(F)F)c(F)c3)nc2C)ccc1OCC(=O)O + COc1cc2ncnc(Nc3ccc(Oc4ccccc4)cc3)c2cc1OC [SrcI1] (first compound 10 µM, partner dose 10 µM)",147
10,"NC(=O)c1ccc(N(C(N)=O)c2c(F)cccc2F)nc1-c1ccc(F)cc1F + N.N.[Cl][Pt][Cl] [cisplatin] (first compound 2 µM, partner dose 8 µM)",106
11,"Cn1cnc2c(F)c(Nc3ccc(Br)cc3Cl)c(C(=O)NOCCO)cc21 [selumetinib] + C[C@]12O[C@H](C[C@]1(O)CO)n1c3ccccc3c3c4c(c5c6ccccc6n2c5c31)CNC4=O [Lestaurtinib] (first compound 0.075 µM, partner dose 0.02 µM)",107
12,"C[C@@H](N)c1ccc(C(=O)Nc2ccnc3[nH]ccc23)cc1 + Cn1cc(C2=C(c3cn(C4CCN(Cc5ccccn5)CC4)c4ccccc34)C(=O)NC2=O)c2ccccc21 [Enzastaurin] (first compound 2 µM, partner dose 4 µM)",86.5
13,"C[C@@H](N)c1ccc(C(=O)Nc2ccnc3[nH]ccc23)cc1 + C[As](C)SC[C@H](NC(=O)CC[C@H](N)C(=O)O)C(=O)NCC(=O)O [Darinaparsin] (first compound 2 µM, partner dose 2 µM)",105
14,"NC1(c2ccc(-c3nc4ccn5c(=O)[nH]nc5c4cc3-c3ccccc3)cc2)CCC1 + C[As](C)SC[C@H](NC(=O)CC[C@H](N)C(=O)O)C(=O)NCC(=O)O [Darinaparsin] (first compound 2 µM, partner dose 2 µM)",96.4
15,"CCCCCCCCCCCCCCCCCCOP(=O)([O-])OC1CC[N+](C)(C)CC1 [Perifosine] + N.N.[Cl][Pt][Cl] [cisplatin] (first compound 2 µM, partner dose 8 µM)",88.8
